Test results taken from PubChem BioAssay AID504332 (National Center for Advancing Translational Sciences (NCATS), 2011).
Where “and” joins values, the source holds several entries; their conditions need not be identical. Equal entries are not always repeated. Screen size: about 350,000 compounds; about 31,000 (8.9%) were called active. This list was built around the results that the source calls inconclusive (neither active nor inactive); the mix of calls is not that of the screen. Calls follow the shape of the dose curve; as a rule, active = well fitted inhibition curve with a large enough effect; inconclusive = small, poorly fitted or top-dose-only effect; inactive = no such curve, though single readings can be large or run the other way. Potencies beside an inconclusive call are fits to weak or partial responses and may not hold up. A structure can be active in one record and inactive in another.
% is scaled to controls: 0 for no effect and ±100 for the full control effect; potency is read from the fitted curve at half-maximal effect; tags tell the direction and shape of the fitted curve.
Also: nearly all actives have a fitted effect of over 75% in size.

These compounds were tested against Histone-lysine N-methyltransferase EHMT2 (Homo sapiens) (UniProt Q96KQ7) (assay: qHTS Assay for Inhibitors of Histone Lysine Methyltransferase G9a). Details: G9a H3K9 monomethylation, AlphaScreen, 2 h; activity, negative = inhibition: at 59 µM (top of the series) unless noted.
UniProt Q96KQ7, sequence (Q96KQ7 whole entry, looked up): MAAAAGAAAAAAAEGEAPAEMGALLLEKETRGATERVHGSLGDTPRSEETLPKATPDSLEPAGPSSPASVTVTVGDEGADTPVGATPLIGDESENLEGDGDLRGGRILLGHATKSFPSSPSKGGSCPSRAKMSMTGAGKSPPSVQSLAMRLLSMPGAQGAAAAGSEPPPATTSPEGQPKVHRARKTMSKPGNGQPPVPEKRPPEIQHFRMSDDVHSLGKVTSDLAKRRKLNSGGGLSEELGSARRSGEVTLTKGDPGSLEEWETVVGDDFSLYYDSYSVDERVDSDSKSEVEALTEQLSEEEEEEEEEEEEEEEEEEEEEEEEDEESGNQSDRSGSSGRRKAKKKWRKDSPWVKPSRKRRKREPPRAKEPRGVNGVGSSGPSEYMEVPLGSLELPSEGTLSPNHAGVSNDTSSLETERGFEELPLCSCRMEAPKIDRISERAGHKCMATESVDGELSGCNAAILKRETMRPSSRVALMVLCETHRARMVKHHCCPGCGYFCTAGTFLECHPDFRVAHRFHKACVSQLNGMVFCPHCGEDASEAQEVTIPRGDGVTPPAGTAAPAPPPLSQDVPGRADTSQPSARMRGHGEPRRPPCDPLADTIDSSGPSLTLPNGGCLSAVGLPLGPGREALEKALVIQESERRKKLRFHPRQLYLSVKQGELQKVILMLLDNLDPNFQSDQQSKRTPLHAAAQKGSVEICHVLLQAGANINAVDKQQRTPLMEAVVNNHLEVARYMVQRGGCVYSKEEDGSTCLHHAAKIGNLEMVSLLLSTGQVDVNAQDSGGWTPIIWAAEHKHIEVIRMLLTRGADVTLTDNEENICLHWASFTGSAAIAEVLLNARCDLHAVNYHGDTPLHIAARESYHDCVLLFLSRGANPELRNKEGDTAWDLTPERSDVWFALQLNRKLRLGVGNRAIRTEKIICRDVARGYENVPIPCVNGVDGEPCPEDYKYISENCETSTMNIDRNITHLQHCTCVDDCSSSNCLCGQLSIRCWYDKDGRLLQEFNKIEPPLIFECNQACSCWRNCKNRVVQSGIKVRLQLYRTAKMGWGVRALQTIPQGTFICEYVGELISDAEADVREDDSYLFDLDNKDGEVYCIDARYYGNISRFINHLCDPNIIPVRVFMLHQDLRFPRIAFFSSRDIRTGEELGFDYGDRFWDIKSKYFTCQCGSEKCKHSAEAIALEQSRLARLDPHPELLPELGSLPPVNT
Summary of the method: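 Readings reflect AlphaScreen signal from monomethyl-H3K9 antibody detection. HMT at 20 nM; substrate b-H3K9 500 nM; cofactor SAM 20 uM; 2 h RT reaction; compounds tested as titrations in qHTS with 15 min preincubation.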
For CC(=O)c1cc(-c2ccccc2)[nH]c1N1CCOCC1, the Potency was inconclusive: 89.1 µM [inhibitor, single point]. CCCCC(=O)Nc1cccc(-c2nc3ccccc3s2)c1 was tested, and the Potency was inconclusive: 7.08 µM [inhibitor, partial curve, poor fit]. With CCCCNc1c(-c2cccc(SC3CCCCC3)c2)nc2ccc(Cl)cn12 the Potency was inconclusive: 2.82 µM [inhibitor, partial curve, poor fit]. For O=C(NCc1csc2ccccc12)Nc1cc(Cl)cc(Cl)c1, the Potency was inconclusive: 89.1 µM [inhibitor, single point]. With COc1cccc(C(=O)Cn2c(NCCO)nc3ccccc32)c1 the Potency was inconclusive: 35.5 µM [inhibitor, single point]. With COCCCNc1nc2ccccc2nc1NS(=O)(=O)c1ccccc1 the Potency was inconclusive: 79.4 µM [inhibitor, single point]. COc1cc(/C=C/C(=O)N(C)c2ccccc2C(=O)O)cc(OC)c1OC was tested, and the activity, negative = inhibition was inactive: 28.9% [at 0.501 µM]. With CC1CCN(C(c2ccccc2)c2nnnn2C(C)(C)C)CC1 (configuration not stated) the Potency was inconclusive: 1.58 µM [inhibitor, full curve, poor fit]. With Cc1ccc(CC(=O)O/N=C(\N)c2ccccn2)cc1 the Potency was inconclusive: 100 µM [inhibitor, partial curve, poor fit]. COc1ccc(Br)c2oc(SC)cc(=O)c12 was tested, and the Potency was active: 31.6 µM and active: 39.8 µM. With COC(=O)N1CCC2(CCN(C(=O)Nc3cccc(F)c3)CC2)CC1 the activity, negative = inhibition was inactive: -2.52% [at 12.7 µM]. With O=c1c2c(nc3c(-c4cccc(Br)c4)c[nH]n13)CCCC2 the activity, negative = inhibition was inconclusive: -63.8% [inhibitor] [at 12.7 µM]. In the case of COc1ccc(C(=O)NCc2ccccc2OC)cc1, the Potency is reported as “inactive”. For CCN(c1ccc(NC(=O)COC(=O)c2ccc3ccccc3n2)cc1)C(C)C, the Potency was inconclusive: 39.8 µM [inhibitor, single point]. For O=C(COC(=O)c1ccccc1NC(=O)c1ccccc1)c1cccc([N+](=O)[O-])c1, the Potency was inconclusive: 22.4 µM [inhibitor, single point]. With Nc1nnc(CSCc2ccc(F)cc2)s1 the Potency was inconclusive: 3.16 µM [inhibitor, partial curve, poor fit]. In the case of COc1ccc(S(=O)(=O)Nc2cc(C)ccn2)cc1, the Potency is reported as inconclusive: 39.8 µM [inhibitor, single point]. In the case of O=C(Nc1ccccc1[N+](=O)[O-])c1csnn1, the Potency is reported as inconclusive: 44.7 µM [inhibitor, partial curve, poor fit]. For CC(=O)N1CCN(CC(O)COc2ccc(S(=O)(=O)N3CCOCC3)cc2)CC1 (configuration not stated), the Potency was inconclusive: 7.08 µM [inhibitor, single point]. In the case of CCOc1ccc2nc(SC3CC(=O)N(c4cccc(OC)c4)C3=O)sc2c1 (configuration not stated), the Potency is reported as active: 10 µM. For CCOc1ccccc1NC(=O)CSc1nnc(-c2ccccn2)n1Cc1ccco1, the Potency was “inactive”. In the case of CC1=NN(c2ccc(C(=O)OC(C)C)cc2)C(=O)/C1=C\C=C\c1ccco1, the Potency is reported as active: 4.47 µM. In the case of C/C(=N\Nc1nc(C)cc(=O)[nH]1)C1CC1, the Potency is reported as active: 7.94 µM. CCOc1ccc(NC(=S)NCc2nc3ccccc3[nH]2)cc1 was tested, and the Potency was “inactive”. O=C(CSc1nc(-c2cccs2)cc(C(F)(F)F)n1)Nc1ccccc1Cl was tested, and the Potency was “inactive”. In the case of CC(=O)Nc1ccc(S(=O)(=O)Nc2ccc(C(=O)NCC(=O)O)cc2)cc1, the Potency is reported as active: 20 µM. In the case of CCN(CC)CCOCCOC(=O)C1(c2ccccc2)CCCC1, the Potency is reported as active: 29.9 µM. With CCOc1ccc(CN(C)CC(O)COC(c2ccc(OC)cc2)c2ccc(OC)cc2)cc1 (configuration not stated) the Potency was inconclusive: 56.2 µM [inhibitor, single point]. In the case of CCNc1oc(-c2cccc3ccccc23)nc1C#N, the Potency is reported as “inactive”. For COc1ccc(-c2csc(NC(=O)CSc3n[nH]c(N)n3)n2)cc1, the Potency was active: 8.91 µM. With CCCOc1ccc(CNC(=O)c2cc3oc4ccccc4c3n2C)cc1 the Potency was “inactive”. With O=C(COc1ccccc1Cl)NCCCN1CCOCC1 the activity, negative = inhibition was inactive: 2.75% [at 12.7 µM]. For C/C=C/C=C/C(=O)[C@@H]1[C@@H]([C@]2(C)OC(=O)C(C)=C2O)[C@H]2/C(=C(O)/C=C/C=C/C)C(=O)[C@]1(C)C(=O)C2(C)O (some centres not stated), the Potency was inconclusive: 7.08 µM [inhibitor, partial curve, poor fit]. With CC(C)CC(OC(=O)c1nsc(Cl)c1Cl)C(=O)NC1CCCC1 (configuration not stated) the Potency was inconclusive: 89.1 µM [inhibitor, single point]. With COC(=O)c1c(SC)nc2ccccc2c1OCc1cc(C)ccc1C the Potency was “inactive”. With Cc1cc(C)n(CCC(=O)N=Nc2c(O)[nH]c3ccc(Br)cc23)n1 the Potency was inconclusive: 79.4 µM [inhibitor, partial curve, poor fit]. CC(OC(=O)c1cccs1)C(=O)Nc1nc(-c2ccccc2)cs1 (configuration not stated) was tested, and the Potency was active: 79.4 µM. O=C(CCS(=O)(=O)c1ccccc1)Nc1nc2c(s1)CCCC2 was tested, and the Potency was inconclusive: 3.98 µM [inhibitor, partial curve, poor fit]. For O=C(CSc1nnc(-c2ccccc2)c(-c2ccccc2)n1)Nc1ncc(Cl)cc1Cl, the Potency was active: 14.1 µM. For CS(=O)(=O)Nc1ccc(C2=NN(C(=O)c3ccco3)C(c3cccc(F)c3)C2)cc1 (configuration not stated), the Potency was “inactive”. For c1cn2cc(CSC3CCCCC3)nc2s1, the Potency was inconclusive: 3.55 µM [inhibitor, single point]. In the case of C=CCOC(=O)C1=C(C)NC(=S)NC1/C=C/c1ccccc1 (configuration not stated), the Potency is reported as “inactive”. In the case of CCOc1ccccc1NC(=O)C(=O)NCC(c1cccnc1)N1CCN(c2ccccc2)CC1 (configuration not stated), the Potency is reported as “inactive”. CCc1ccc(N2CC(C(=O)N3CCCC3)CC2=O)cc1 (configuration not stated) was tested, and the Potency was inconclusive: 2.24 µM [inhibitor, partial curve, poor fit]. With COc1ccc(C[C@H]2CN3C(=NC[C@@H]3Cc3ccc(O)cc3)N2C[C@H](C)NC(=O)c2ccc(C)c(Br)c2)cc1 the activity, negative = inhibition was inconclusive: -64.5% [inhibitor]. COc1ccc(/C=C/C(=O)NC(=S)NNC(=O)c2ccco2)cc1OC was tested, and the Potency was active: 35.5 µM. In the case of COc1ccccc1CNS(=O)(=O)c1ccc(-n2cnnn2)c(OC)c1, the Potency is reported as active: 28.2 µM.
